From publication PMC7578860
Results are given in words; binding and its absence hold for the method and conditions named. In cells and extracts the contact can be indirect. Some binding calls cover weakened binding; strength is not graded here. For part of these data: Sequences can lack the tags named with a protein.

T1: Flag‐tagged full‐length KSRP (in HEK293T cells) (human) (UniProt Q92945)
T1 sequence: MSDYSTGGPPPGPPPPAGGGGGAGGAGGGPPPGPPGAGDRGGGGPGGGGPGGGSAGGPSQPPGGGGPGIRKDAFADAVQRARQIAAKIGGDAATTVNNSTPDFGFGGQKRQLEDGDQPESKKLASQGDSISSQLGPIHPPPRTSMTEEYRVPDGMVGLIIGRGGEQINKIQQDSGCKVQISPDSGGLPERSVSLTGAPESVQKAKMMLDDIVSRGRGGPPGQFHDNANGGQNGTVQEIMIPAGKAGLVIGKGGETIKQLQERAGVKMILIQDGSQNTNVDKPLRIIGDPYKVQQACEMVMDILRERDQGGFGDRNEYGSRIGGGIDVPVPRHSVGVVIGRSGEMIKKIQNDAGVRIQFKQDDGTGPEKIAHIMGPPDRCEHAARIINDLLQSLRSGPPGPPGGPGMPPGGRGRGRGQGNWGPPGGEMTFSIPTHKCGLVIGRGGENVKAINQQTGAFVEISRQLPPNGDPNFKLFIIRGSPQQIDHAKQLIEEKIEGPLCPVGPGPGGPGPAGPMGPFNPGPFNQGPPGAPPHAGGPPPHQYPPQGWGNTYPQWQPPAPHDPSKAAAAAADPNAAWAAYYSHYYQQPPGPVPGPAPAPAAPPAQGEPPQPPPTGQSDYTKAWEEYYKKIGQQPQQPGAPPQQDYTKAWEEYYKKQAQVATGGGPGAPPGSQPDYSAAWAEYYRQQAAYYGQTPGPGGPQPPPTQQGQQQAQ

T2: F‐box/WD Repeat‐Containing Protein 2 (FBXW2), endogenous in mouse macrophages (mouse (endogenous in peritoneal macrophages and BMDMs)) (UniProt Q60584)
T2 sequence: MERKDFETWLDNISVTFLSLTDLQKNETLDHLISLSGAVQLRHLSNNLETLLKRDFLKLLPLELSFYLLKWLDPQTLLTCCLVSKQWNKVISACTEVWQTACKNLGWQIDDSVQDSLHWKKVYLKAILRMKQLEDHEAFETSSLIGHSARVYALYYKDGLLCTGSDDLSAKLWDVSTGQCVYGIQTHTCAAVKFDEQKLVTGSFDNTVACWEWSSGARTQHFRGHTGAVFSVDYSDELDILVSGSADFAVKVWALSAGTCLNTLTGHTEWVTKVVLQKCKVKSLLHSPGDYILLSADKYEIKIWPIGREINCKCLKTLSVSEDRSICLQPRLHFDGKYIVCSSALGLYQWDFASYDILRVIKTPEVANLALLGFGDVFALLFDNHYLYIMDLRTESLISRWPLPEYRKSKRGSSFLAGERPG

T3: Flag‐tagged KSRP (in Raw264.7 cells) (human) (UniProt Q92945)
T3 sequence: T1 sequence

B1: FBXW2 (P2), N‐terminal WD40 repeat domain of FBXW2, Myc‐tagged (domain or fragment, UniProt Q9UKT8 139-306)
chain: FETSSLIGHSARVYALYYKDGLLCTGSDDLSAKLWDVSTGQCVYGIQTHTCAAVKFDEQKLVTGSFDNTVACWEWSSGARTQHFRGHTGAVFSVDYNDELDILVSGSADFTVKVWALSAGTCLNTLTGHTEWVTKVVLQKCKVKSLLHSPGDYILLSADKYEIKIWPI
B2: KH‐type splicing regulatory protein (KSRP), endogenous in mouse macrophages (protein, UniProt Q3U0V1 1-748)
chain: MSDYNTGGPPPGPPPPAGGGGGAAGAGGGPPPGPPGAGDRGGGGPGGGGPGGGGASGGPSQPPGGGGPGIRKDAFADAVQRARQIAAKIGGDAATTVNNNTPDFGFGGQKRQLEDGDQPDSKKLASQGDSIGSQLGPIHPPPRTSMTEEYRVPDGMVGLIIGRGGEQINKIQQDSGCKVQISPDSGGLPERSVSLTGAPESVQKAKMMLDDIVSRGRGGPPGQFHDNANGGQNGTVQEIMIPAGKAGLVIGKGGETIKQLQERAGVKMILIQDGSQNTNVDKPLRIIGDPYKVQQACEMVMDILRERDQGGFGDRNEYGSRVGGGIDVPVPRHSVGVVIGRSGEMIKKIQNDAGVRIQFKQDDGTGPEKIAHIMGPPDRCEHAARIINDLLQSLRSGPPGPPGAPGMPPGGRGRGRGQGNWGPPGGEMTFSIPTHKCGLVIGRGGENVKAINQQTGAFVEISRQLPPNGDPNFKLFVIRGSPQQIDHAKQLIEEKIEGPLCPVGPGPGGPGPAGPMGPFNPGPFNQGPPGAPPHAGGPPPHQYPPQGWGNTYPQWQPPAPHDPNKAAAAATDPNAAWAAYYSHYYQQPPGPVPGPAPAPAAPPAQGEPPQPPPTGQSDYTKAWEEYYKKIGQQPQQPGAPPQQDYTKAWEEYYKKQAQVATGGGPGAPPGSQPDYSAAWAEYYRQQAAYYGQTPGPGGPQPPPTQQGQQQASGNCHPPPPPFSFQPPATVHPALVGSAGNPFPCGVCP
B3: FBXW2 (P1), F‐box of FBXW2, Myc‐tagged (domain or fragment, UniProt Q9UKT8 1-138)
chain: MERKDFETWLDNISVTFLSLTDLQKNETLDHLISLSGAVQLRHLSNNLETLLKRDFLKLLPLELSFYLLKWLDPQTLLTCCLVSKQWNKVISACTEVWQTACKNLGWQIDDSVQDALHWKKVYLKAILRMKQLEDHEA
B4: Myc‐tagged FBXW2 (in Raw264.7 cells) (protein, UniProt Q9UKT8 1-454)
chain: MERKDFETWLDNISVTFLSLTDLQKNETLDHLISLSGAVQLRHLSNNLETLLKRDFLKLLPLELSFYLLKWLDPQTLLTCCLVSKQWNKVISACTEVWQTACKNLGWQIDDSVQDALHWKKVYLKAILRMKQLEDHEAFETSSLIGHSARVYALYYKDGLLCTGSDDLSAKLWDVSTGQCVYGIQTHTCAAVKFDEQKLVTGSFDNTVACWEWSSGARTQHFRGHTGAVFSVDYNDELDILVSGSADFTVKVWALSAGTCLNTLTGHTEWVTKVVLQKCKVKSLLHSPGDYILLSADKYEIKIWPIGREINCKCLKTLSVSEDRSICLQPRLHFDGKYIVCSSALGLYQWDFASYDILRVIKTPEIANLALLGFGDIFALLFDNRYLYIMDLRTESLISRWPLPEYRKSKRGSSFLAGEASWLNGLDGHNDTGLVFATSMPDHSIHLVLWKEHG
B5: V5‐FBXW2 (in HEK293T cells) (protein, UniProt Q9UKT8 1-454)
chain: B4 chain
B6: FBXW2 (P3), C‐terminal WD40 repeat domain of FBXW2, Myc‐tagged (domain or fragment, UniProt Q9UKT8 307-454)
chain: GREINCKCLKTLSVSEDRSICLQPRLHFDGKYIVCSSALGLYQWDFASYDILRVIKTPEIANLALLGFGDIFALLFDNRYLYIMDLRTESLISRWPLPEYRKSKRGSSFLAGEASWLNGLDGHNDTGLVFATSMPDHSIHLVLWKEHG

Key:
[1] = molecular target: T1, Flag‐tagged full‐length KSRP (in HEK293T cells) (human); assay: co-IP; HEK293T cells cotransfected with a full-length partner and tagged deletion mutants or segments of the other (Figure 4E, 4F); antibodies to Myc and Flag; western blot
[2] = molecular target: T2, F‐box/WD Repeat‐Containing Protein 2 (FBXW2), endogenous in mouse macrophages (mouse (endogenous in peritoneal macrophages and BMDMs)); assay: co-IP; endogenous FBXW2 and KSRP in mouse BMDMs, with and without LPS (1 µg mL^-1) treatment
[3] = molecular target: T3, Flag‐tagged KSRP (in Raw264.7 cells) (human); assay: co-IP; Raw264.7 cells cotransfected with Myc-FBXW2 and Flag-KSRP; protein extracts; antibodies to Myc and Flag; western blot
[4] = molecular target: T1, Flag‐tagged full‐length KSRP (in HEK293T cells) (human); assay: co-IP; HEK293T cells cotransfected with Flag-KSRP and V5-FBXW2 in combinations with Myc-FBXW2 constructs P1, P2, P3; KSRP precipitated with anti-Flag antibody, V5-FBXW2 detected by immunoblot

Row | Binder | binding [1] | further results
1 | B1 | no binding | –
2 | B2 | – | binding [2]: binds
3 | B3 | no binding | –
4 | B4 | – | binding [3]: binds
5 | B5 | – | binding [4]: binds
6 | B6 | binds | –
